{
  "source": "the supplement of paper PMC3334620",
  "note": "In all, about 33,000 sequences were measured (“E-score (-0.5 to 0.5)”: median about -0.012, highest 2% from about 0.27 on). This is one part of the list.",
  "data": [
    {"biological_target": "T1, Vhr1 (UniProt P40522)", "T1 sequence": "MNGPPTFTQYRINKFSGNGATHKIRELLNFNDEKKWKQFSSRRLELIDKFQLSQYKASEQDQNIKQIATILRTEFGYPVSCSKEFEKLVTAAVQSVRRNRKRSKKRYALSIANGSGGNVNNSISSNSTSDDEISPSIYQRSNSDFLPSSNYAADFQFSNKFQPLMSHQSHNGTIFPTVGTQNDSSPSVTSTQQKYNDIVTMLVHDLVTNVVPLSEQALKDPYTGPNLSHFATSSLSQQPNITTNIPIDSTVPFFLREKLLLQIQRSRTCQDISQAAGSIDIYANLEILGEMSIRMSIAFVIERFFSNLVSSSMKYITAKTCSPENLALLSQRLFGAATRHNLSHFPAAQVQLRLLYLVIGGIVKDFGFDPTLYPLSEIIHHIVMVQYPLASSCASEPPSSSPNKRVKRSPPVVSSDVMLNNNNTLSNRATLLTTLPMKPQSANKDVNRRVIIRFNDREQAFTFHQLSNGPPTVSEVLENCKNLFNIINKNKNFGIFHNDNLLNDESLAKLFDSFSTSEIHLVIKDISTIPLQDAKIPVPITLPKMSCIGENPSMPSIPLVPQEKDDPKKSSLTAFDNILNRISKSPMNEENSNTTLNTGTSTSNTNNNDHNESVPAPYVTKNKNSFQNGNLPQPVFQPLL", "test": "PBM E-score (8-mer binding enrichment) (E-score (-0.5 to 0.5)); higher = stronger / more preferred TF binding; most listed sequences are background and not binding sites", "settings": "protein concentration: 200 nM; construct: GST-full length", "procedure,_shortened": "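GST-tagged yeast TFs (full-length or DNA-binding domain) were made by PURExpress in vitro transcription/translation and applied at about 100-200 nM to universal all-10-mer Agilent arrays. The arrays were made double-stranded by primer extension, on fresh or once-stripped slides. Bound protein was detected with fluorescent anti-GST, and scans were normalised with masliner. Each ungapped eight-base word, pooled with its reverse complement, received an E-score (modified Wilcoxon-Mann-Whitney statistic) from the Universal PBM Analysis Suite.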", "values": [
      {"sequence": "CAATCACG", "PBM E-score": 0.211},
      {"sequence": "TGTAAGAA", "PBM E-score": -0.132},
      {"sequence": "TAACTAGA", "PBM E-score": 0.154},
      {"sequence": "AATAATGG", "PBM E-score": 0.0241},
      {"sequence": "CGGTTATC", "PBM E-score": -0.0314},
      {"sequence": "GGTAGATA", "PBM E-score": 0.048},
      {"sequence": "ATAAACAG", "PBM E-score": -0.0471},
      {"sequence": "ACATACGC", "PBM E-score": 0.122},
      {"sequence": "AAATACTT", "PBM E-score": -0.0486},
      {"sequence": "GGCGTAAC", "PBM E-score": -0.181},
      {"sequence": "ATGATACA", "PBM E-score": 0.289},
      {"sequence": "AAGACTCA", "PBM E-score": 0.317},
      {"sequence": "AGTTGCAA", "PBM E-score": -0.2},
      {"sequence": "ACGCACTC", "PBM E-score": -0.00777},
      {"sequence": "AGTAGCAT", "PBM E-score": 0.117},
      {"sequence": "AAACTTGA", "PBM E-score": -0.113},
      {"sequence": "ACTGCCGA", "PBM E-score": 0.0718},
      {"sequence": "CACACAAC", "PBM E-score": 0.0519},
      {"sequence": "GCTACAGC", "PBM E-score": 0.102},
      {"sequence": "GATTGGCC", "PBM E-score": -0.204},
      {"sequence": "AAACAGTT", "PBM E-score": -0.128},
      {"sequence": "GCCCCCCA", "PBM E-score": -0.244},
      {"sequence": "ACTTTTCT", "PBM E-score": -0.174},
      {"sequence": "ATGCTGCA", "PBM E-score": -0.025},
      {"sequence": "AATAGCCC", "PBM E-score": -0.0969},
      {"sequence": "ATTGGTTA", "PBM E-score": 0.155},
      {"sequence": "CGGAAATA", "PBM E-score": 0.0181},
      {"sequence": "AACTGCTT", "PBM E-score": -0.0678},
      {"sequence": "ACGCCGCG", "PBM E-score": -0.0464},
      {"sequence": "TACGCGGA", "PBM E-score": 0.0236},
      {"sequence": "CGAAATTC", "PBM E-score": -0.235},
      {"sequence": "AAGTACCT", "PBM E-score": -0.121},
      {"sequence": "ACGATCAC", "PBM E-score": -0.0532},
      {"sequence": "ATGCTGGC", "PBM E-score": -0.0908},
      {"sequence": "AGAATGTA", "PBM E-score": 0.0323},
      {"sequence": "CCCGAACA", "PBM E-score": 0.0619},
      {"sequence": "GGTTGCAA", "PBM E-score": -0.015},
      {"sequence": "ACTGATCC", "PBM E-score": 0.0497},
      {"sequence": "AACCACCC", "PBM E-score": 0.0993},
      {"sequence": "GACTATAA", "PBM E-score": 0.0359},
      {"sequence": "CTGAAACC", "PBM E-score": 0.0903},
      {"sequence": "AAACAAAT", "PBM E-score": -0.00281},
      {"sequence": "GCAAAACC", "PBM E-score": -0.0168},
      {"sequence": "CAATTACG", "PBM E-score": -0.088},
      {"sequence": "AATCACAG", "PBM E-score": 0.27},
      {"sequence": "CTACCGAC", "PBM E-score": -0.0219},
      {"sequence": "GCCCAGCC", "PBM E-score": 0.0771},
      {"sequence": "AAAACGGT", "PBM E-score": -0.195},
      {"sequence": "ATTTTGAC", "PBM E-score": 0.155},
      {"sequence": "CGTCCCGA", "PBM E-score": -0.214},
      {"sequence": "CCCTAGAA", "PBM E-score": -0.255},
      {"sequence": "CAGAACGG", "PBM E-score": -0.117},
      {"sequence": "ACACGTAT", "PBM E-score": 0.14},
      {"sequence": "TCTACGAA", "PBM E-score": -0.257},
      {"sequence": "TCTGCAGA", "PBM E-score": -0.114},
      {"sequence": "ATTTTCCC", "PBM E-score": -0.154},
      {"sequence": "CGACTAAG", "PBM E-score": 0.118},
      {"sequence": "GGCACACC", "PBM E-score": 0.0319},
      {"sequence": "GTATTTAA", "PBM E-score": -0.0956},
      {"sequence": "GCCTCGAC", "PBM E-score": -0.0986},
      {"sequence": "ACGTAAGG", "PBM E-score": -0.217},
      {"sequence": "ACAACCTG", "PBM E-score": 0.018},
      {"sequence": "ATAGATAT", "PBM E-score": 0.177},
      {"sequence": "ATACACCA", "PBM E-score": 0.114},
      {"sequence": "AGTGGGAG", "PBM E-score": 0.117},
      {"sequence": "AGTGTCGC", "PBM E-score": 0.138},
      {"sequence": "ATTTGATA", "PBM E-score": 0.215},
      {"sequence": "AGCATACT", "PBM E-score": 0.0151},
      {"sequence": "AGATCTAG", "PBM E-score": -0.0772},
      {"sequence": "CCATACTA", "PBM E-score": 0.262},
      {"sequence": "CTCGTACC", "PBM E-score": 0.0824},
      {"sequence": "AAGTAAAT", "PBM E-score": -0.171},
      {"sequence": "CTGCTTTC", "PBM E-score": -0.0862},
      {"sequence": "ATGGACAC", "PBM E-score": 0.0706},
      {"sequence": "ACTGAACA", "PBM E-score": 0.179},
      {"sequence": "GAGGATAA", "PBM E-score": 0.0571},
      {"sequence": "TACACATA", "PBM E-score": 0.234},
      {"sequence": "AGGTAGCG", "PBM E-score": -0.18},
      {"sequence": "AGGGCTGA", "PBM E-score": 0.00168},
      {"sequence": "AGCAAGAG", "PBM E-score": -0.212},
      {"sequence": "GCATATGC", "PBM E-score": -0.249},
      {"sequence": "ACGCCGGC", "PBM E-score": 0.132},
      {"sequence": "CAGGATGC", "PBM E-score": 0.00328},
      {"sequence": "AAGCATGC", "PBM E-score": -0.179},
      {"sequence": "AGCTGTGC", "PBM E-score": -0.0386},
      {"sequence": "GAAAAGAA", "PBM E-score": -0.0931}
    ]}
  ]
}
